Results on 52 compounds are retold here after PubChem BioAssay AID1347073 (National Center for Advancing Translational Sciences (NCATS), 2019).

The structures appear in SMILES notation. The whole screen tested about 45,000 compounds, of which about 200 (0.44%) were called active. Inconclusive results (about 7%) are left out. The call rests on the fitted dose curve; in most records, active means well fitted activation curve with a large enough effect; inconclusive means small, poorly fitted or top-dose-only effect; inactive means no such curve, though single readings can be large or run the other way. This is one part of the list.

This experiment in a line: qHTS of TDP-43 Inhibitors: NCGC Sytravon Library Screen. Further: 0% is about no effect; nearly all actives have a fitted effect of over 55% in size. The following applies: yeast TDP-43 toxicity rescue, BacTiter-Glo growth, 24 h; series mostly up to 46.1 µM; growth rescue (activation): at the top concentration. The gist of the method:
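TDP-43-expressing yeast, pregrown in raffinose, seeded at OD600 0.02 in galactose medium with compound for 24 hr at 30 deg C. Growth read by BacTiter-Glo luminescence, so rescue of toxicity appears as activation.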
(qHTS replaces the single test concentration by a dilution series.)
Turning to `O=[N+]([O-])c1ccc(S(=O)(=O)CC(CN2CCCCC2)N2CCCCC2)cc1` (configuration not stated), the “growth rescue (activation)” value was inactive: 5.67%.
The same measure for `Cc1c(Cl)cnn1CC(=O)NC1C(=O)N2C(C(=O)O)=C(CSc3nnnn3C)CSC12` (configuration not stated): inactive: -2.4%; for `COc1ccc(NC(=O)CN2CCC(NC(=O)c3ccco3)CC2)c([N+](=O)[O-])c1`: inactive: 5.69%; for `O=C(NCCCN1CCOCC1)c1ccc([N+](=O)[O-])cc1[N+](=O)[O-]`: inactive: -1.41%.
Consider `COC(=O)c1ccc(NC(=O)CN2CCN(CCO)CC2)cc1`, for which the “growth rescue (activation)” value was inactive: 7.96%.
As for `Cc1cc(C)nc(Sc2nc(Nc3ccccc3)nc(Sc3nc(C)cc(C)n3)n2)n1`, the “growth rescue (activation)” value is inactive: 14.6%.
Consider `Cc1ccccc1NC(=O)c1ccc(S(=O)(=O)C(F)F)cc1`, for which the “growth rescue (activation)” value was inactive: 17%.
Regarding `CCOC(=O)C(=CNc1cc(C)ccn1)C(=O)OCC`, the “growth rescue (activation)” value was inactive: 21.2%.
For the compound `Cc1cccc(Nc2nnc(SCC(=O)NC(=O)Nc3ccc4c(c3)OCCO4)s2)c1`, the “growth rescue (activation)” value is inactive: 8.5%.
For `Cc1cc(C)c(S(=O)(=O)N2CCN(S(=O)(=O)N3CCC(C)CC3)CC2)c(C)c1`, the “growth rescue (activation)” value was inactive: -1.94%.
`COCCCn1c(-c2cccc(Cl)c2)nc2c1c(=O)[nH]c(=O)n2Cc1ccccc1`: the “growth rescue (activation)” value was inactive: -0.355%.
Consider `Cc1cc(C)n(Cc2cc(C(=O)O)c3ccccc3n2)n1`, for which the “growth rescue (activation)” value was inactive: 10.1%.
As for `CCc1cccc(NC(=S)N2CCC(c3ccccc3)C2)c1` (configuration not stated), the “growth rescue (activation)” value was inactive: -4.02%.
With `COC(=O)c1ccccc1NC(=S)N(Cc1ccc2c(c1)OCO2)Cc1cc2cc(OC)ccc2[nH]c1=O`, the “growth rescue (activation)” value is inactive: -1.4%.
Regarding `COc1ccc(N(CC(=O)N/N=C(\C)c2ccc(C)cc2)S(=O)(=O)c2ccccc2)cc1`, the “growth rescue (activation)” value was inactive: 12.2%.
Regarding `O=C(O)CC/C(=N\Nc1ccc(S(=O)(=O)N2CCOCC2)cc1[N+](=O)[O-])c1cccs1`, the “growth rescue (activation)” value is inactive: 21.9%.
The value for `COc1ccccc1NC(=O)CN1CCN(CC(=O)Nc2ccc(F)cc2F)CC1` was inactive: -18.3%.
As to `COc1ccc(NC(=O)C/C(C)=N/NC(=O)c2ccncc2)c([N+](=O)[O-])c1`, the “growth rescue (activation)” value was inactive: -10%.
Regarding `COc1ccc(CNC(=O)C(C)N2CCN(c3ccc(C(C)=O)cc3)CC2)cc1` (configuration not stated), the “growth rescue (activation)” value was inactive: -20.5%.
As for `Cn1cccc1C(C#N)c1ncc(C(F)(F)F)cc1Cl` (configuration not stated), the “growth rescue (activation)” value was inactive: 14.3%.
Regarding `Cc1nn(C(C)(C)C)c(OC(=O)c2ccc3c(c2)OCO3)c1Sc1ccccc1`, the “growth rescue (activation)” value is inactive: 21.9%.
Consider `CCc1ccc(NC(=O)CN(c2ccccc2)S(=O)(=O)N(C)C)cc1`, for which the “growth rescue (activation)” value is inactive: -6.79%.
On to `COc1cc2[nH]c(C(=O)NCC3CCCO3)cc2c(OC)c1OC` (configuration not stated), for which the “growth rescue (activation)” value is inactive: -1.88%.
With `CCC(OC(=O)C(C)N1C(=O)C(=O)c2ccccc21)C(=O)Nc1ccccc1OC` (configuration not stated), the “growth rescue (activation)” value is inactive: 7.36%.
The value for `CS(=O)(=O)N(CC(=O)Nc1c(F)cccc1F)c1cccc([N+](=O)[O-])c1` was inactive: 25.1%; that for `CC(C)(C)CC(=O)Nc1ccc(S(=O)(=O)N2CCCC2)cc1` was inactive: 10.2%.
Consider `OCCN(Cc1ccccc1)Cc1ccccc1O`, for which the “growth rescue (activation)” value was inactive: -4.76%.
Regarding `CCOC(=O)CC1C(C(=O)OCC)ON2OC(C(=O)OC)C(C(=O)OCC)C12` (configuration not stated), the “growth rescue (activation)” value was inactive: 19.4%.
The same measure for `O=C1c2ccccc2C(=O)N1CCC(O)C[N+](=O)[O-]` (configuration not stated): inactive: -3.96%; for `Cn1nc(C(C)(C)C)cc1C(=O)O`: inactive: 7.49%; for `O=C(Cc1ccccc1F)NCC(=O)Nc1ccccc1Br`: inactive: -1.4%.
Regarding `CCOc1ccc(NC(=O)c2ccc(S(=O)(=O)N3CCOCC3)cc2)cc1`, the “growth rescue (activation)” value was inactive: -0.154%.
Turning to `N#Cc1ccccc1OCC(=O)NNC(=O)CCNC(=O)c1ccccc1`, the “growth rescue (activation)” value is inactive: -6.17%.
Consider `CCN(CC)CC(=O)Nc1ccc(Oc2ccc(NC(=O)CN(CC)CC)cc2)cc1`, for which the “growth rescue (activation)” value was inactive: -8.11%.
On to `CCCn1c(SCC(=O)NCC)nc2sc3c(c2c1=O)CCC3`, for which the “growth rescue (activation)” value is inactive: -2.9%.
For `COc1ccc(Cc2nnc(N/N=C/c3ccc(N(C)C)cc3)[nH]c2=O)cc1OC`, the “growth rescue (activation)” value is inactive: 19.2%.
On to `CC(C)NC(=O)C1CCN(C2CCN(C(=O)Cc3ccc4c(c3)OCO4)CC2)CC1`, for which the “growth rescue (activation)” value is inactive: -11.2%.
The value for `COc1ccc(/C=C2\NC(=O)C(C=NCc3ccccc3)=C2O)cc1` was inactive: 13.1%; that for `CCCCN(C)Cc1c(C(=O)N2CCc3ccccc3C2)nc2ccc(Cl)cn12` was inactive: 14%.
For the compound `O=C(Oc1ccccc1)c1ccc2c(c1)C(=O)N(Cc1ccncc1)C2=O`, the “growth rescue (activation)” value is inactive: 17.1%.
Regarding `CCS(=O)(=O)c1ccc2oc(Nc3ccccc3Cl)nc2c1`, the “growth rescue (activation)” value was inactive: -27.7%.
For `Cc1nn(CC(=O)NC(C)C)c(C)c1[N+](=O)[O-]`, the “growth rescue (activation)” value is inactive: 4.42%.
On to `O=C1NC(c2ccccc2)=C(c2ccc3ccccc3n2)C(c2ccccc2)N1` (configuration not stated), for which the “growth rescue (activation)” value is inactive: 7.07%.
The same measure for `O=C(Nc1cccc(-c2nc3ccccc3[nH]2)c1)c1ccccn1`: inactive: -12.2%; for `O=C(Cc1c(F)cccc1Cl)Nc1cc(S(=O)(=O)N2CCCCC2)ccc1N1CCOCC1`: inactive: 2.86%.
Take `Cc1ccccc1NC(=O)c1nnn(-c2ccc3c(c2)OCCO3)c1N`: the “growth rescue (activation)” value is inactive: 21.8%.
Take `CCC(=O)Nc1ccc(Cl)c(NC(=O)c2cccc(OC)c2)c1`: the “growth rescue (activation)” value was inactive: 9.26%.
Turning to `CN(C)S(=O)(=O)c1ccc(-c2csc(N/N=C/c3ccco3)n2)cc1`, the “growth rescue (activation)” value was inactive: 12.8%.
With `Cc1ccc(NC(=S)NN2CCOCC2)c(C)c1`, the “growth rescue (activation)” value is inactive: 11%.
With `O=C1COc2ccc(C(=O)COC(=O)c3ccc(F)cc3Cl)cc2N1`, the “growth rescue (activation)” value is inactive: 11.1%.
The same measure for `COc1ccc(NC(=O)C2CCCN(C(=O)Nc3ccc(F)cc3)C2)cc1` (configuration not stated): inactive: 4.91%; for `Cc1cccc(CC(=O)N2CCC(n3nccc3NC(=O)C3CC3)CC2)c1`: inactive: 9.11%.
